# Measured values from the BET-seq Pho4 binding data (Le et al. 2018).
# The other results are listed elsewhere or left out. Values were computed here from the reads of four pooled replicates and scatter widely.
# Target: T1, Pho4 (S. cerevisiae) (UniProt P07270)
# T1 sequence: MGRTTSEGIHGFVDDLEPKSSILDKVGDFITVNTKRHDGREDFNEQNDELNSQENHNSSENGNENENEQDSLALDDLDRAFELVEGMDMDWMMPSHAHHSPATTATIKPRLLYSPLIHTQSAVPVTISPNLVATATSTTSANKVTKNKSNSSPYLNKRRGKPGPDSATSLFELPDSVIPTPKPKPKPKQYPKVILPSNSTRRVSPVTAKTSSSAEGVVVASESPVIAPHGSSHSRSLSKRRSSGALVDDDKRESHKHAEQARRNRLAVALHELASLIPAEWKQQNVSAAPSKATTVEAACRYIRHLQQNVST
# Test: relative binding free energy (BET-seq); higher = weaker binding
# Conditions: reference: library average
row,Sequence,relative binding free energy [kcal/mol]
1,ATAGACACGTGTAGGG,-0.08
2,ACGTGCACGTGAAGTT,0.1
3,GTATTCACGTGATTGT,0.31
4,ATGAGCACGTGCGAGT,-0.13
5,CGAATCACGTGGGTGA,0.02
6,TGAATCACGTGTGCGA,0.11
7,TGTGCCACGTGTGTGA,-0.19
8,CTTGTCACGTGAAGGC,0.31
9,TGAGGCACGTGGCGAC,-0.06
10,GGATTCACGTGGCTTA,0.27
11,CGGGTCACGTGATCGG,0.06
12,AGATTCACGTGTGGGG,0.3
13,TAGGTCACGTGTGTGC,0.06
14,GAGTGCACGTGTAGTG,0.11
15,TTGCTCACGTGAATTT,0.49
16,TGCTGCACGTGTAGAT,0.06
17,TAATGCACGTGTCGGT,-0.1
18,GGCGCCACGTGGTTTA,0.04
19,AATTTCACGTGAATTT,0.41
20,AGTTACACGTGGGTCA,0.05
21,GTTTCCACGTGTGTGA,0.12
22,TAGAGCACGTGCTGGA,-0.05
23,ATCGTCACGTGGATGT,0.1
24,CAGTGCACGTGGCTGT,0
25,TGTTTCACGTGTCATA,0.38
26,TCGAGCACGTGGTGTT,-0.15

row,Sequence,relative binding free energy [kcal/mol]
1,CGGTGCACGTGATGTG,0.03
2,CGTGGCACGTGGGTTG,-0.2
3,TTCGTCACGTGAGGAA,0.22
4,AATGTCACGTGTTTAG,0.08
5,AATGGCACGTGGTGAG,-0.23
6,GACGGCACGTGGGCGT,-0.21
7,GCGGGCACGTGGCATG,-0.07
8,CGGGGCACGTGGTGAA,-0.22
9,TGATCCACGTGAGTGG,0.11
10,CGGTTCACGTGTGGAA,0.15
11,ATATTCACGTGCTGAG,0.19
12,GTTTACACGTGGACGG,0.23
13,CTGGTCACGTGGTATA,0.13
14,GGAGTCACGTGGCGTC,0.1
15,TATTGCACGTGCGGGG,-0.08
16,TATGGCACGTGGTTAC,-0.15
17,GGGTTCACGTGGGTGT,0.26
18,TGTGTCACGTGGTCAT,-0.03
19,AAAGTCACGTGAGGTG,0.14
20,TGGTGCACGTGAGGAA,0.33
21,GTTAGCACGTGTGGTG,0.04
22,TGGGCCACGTGGGGAG,-0.22
23,AAGGTCACGTGTTTTG,0.12
24,AGTCTCACGTGTTGTA,-0.07
25,ATTAACACGTGTTTTG,-0.17
26,GCTTGCACGTGGGTGT,-0.09

row,Sequence,relative binding free energy [kcal/mol]
1,TTCCGCACGTGTGGGG,-0.07
2,AGAAGCACGTGGTGCA,-0.14
3,GCGAGCACGTGGCGTG,-0.06
4,TCGGGCACGTGTATAT,-0.12
5,CTGGTCACGTGTCATG,0.09
6,CAGTTCACGTGGTATA,0.24
7,GTTGGCACGTGTTGAG,-0.03
8,TGGGCCACGTGTTCTA,0.06
9,TGTAACACGTGGGAGC,-0.22
10,ATGTTCACGTGGCGAG,0.13
11,ATGGTCACGTGGGACT,0.08
12,TTAGGCACGTGGTATT,-0.11
13,TTAATCACGTGTAAGA,0.23
14,AGCTACACGTGAGTGT,0.19
15,TCTTTCACGTGTGTAA,0.34
16,ATCGGCACGTGAATTG,0.21
17,TTTGTCACGTGGGCGA,-0.15
18,GTCAGCACGTGCAGGT,0.03
19,ATCTGCACGTGGTGCT,-0.03
20,TAGATCACGTGAGTAG,0.3
21,GTTCCCACGTGAGGGG,0.13
22,TGTATCACGTGTAGAA,0.13
23,GCTGTCACGTGTATTA,0.23
24,GTTTGCACGTGGCATT,-0.08
25,AGTAACACGTGGCGGT,-0.01
26,CTGGTCACGTGATCTG,0.24

row,Sequence,relative binding free energy [kcal/mol]
1,AGTGACACGTGTTGCT,0.02
2,ATAGTCACGTGGGATG,0.01
3,TTGGTCACGTGTGTCT,0.19
4,TGGCACACGTGGGGAT,-0.08
5,TGGTCCACGTGTGACG,0.27
6,TGAATCACGTGGGACG,0.14
7,GGTCGCACGTGTTTTA,-0.01
8,GTTAGCACGTGTCAGG,-0.08
9,GGAGTCACGTGGAGGT,0.21
10,GTTTGCACGTGCTTTT,0.09
11,GTAGGCACGTGGTTTA,-0.21
12,GAAGCCACGTGGAGGT,-0.02
13,AGTTTCACGTGATCTG,0.21
14,GGGGTCACGTGGTTAT,0.13
15,TGGGCCACGTGGATTT,-0.07
16,ATGTACACGTGGAAAG,0.12
17,GGTGTCACGTGTATTC,0.12
18,TTTTTCACGTGCGCTG,0.3
19,TTTAGCACGTGTCCTT,-0.02
20,ATGGACACGTGACGGT,0.05
21,GCTATCACGTGGGTGA,0.07
22,TTTTTCACGTGGGATA,0.25
23,ATTATCACGTGCGCGT,0.03
24,TTGCGCACGTGGGTTC,-0.3
25,ATATACACGTGTTCTT,0.09
26,AGGCGCACGTGTGGTT,-0.07

row,Sequence,relative binding free energy [kcal/mol]
1,TGATTCACGTGATTCG,0.26
2,CATTTCACGTGAGGGG,0.42
3,GGTGTCACGTGCAGGG,0.22
4,CGGGTCACGTGAACGG,0.33
5,TTTCGCACGTGGCTGT,-0.19
6,TCTGACACGTGTGATT,0.13
7,TGGTGCACGTGTGATC,0.13
8,TGAGACACGTGAAGGG,0.29
9,ATTTTCACGTGACTAG,0.22
10,AGTAACACGTGATAGG,0.06
11,TTATTCACGTGTAAGC,0.35
12,GATGGCACGTGTTGAC,0.18
13,ATTTGCACGTGATCAT,-0.03
14,GGGATCACGTGATTTA,0.34
15,ATTATCACGTGCAGGG,0.02
16,AGTGGCACGTGTTCTT,-0.09
17,GCTATCACGTGTGTGG,0.24
18,GCGATCACGTGTGGTG,0.12
19,CATGTCACGTGCTGGG,0.09
20,ATCGTCACGTGTGGTA,-0.02
21,GTGTACACGTGGCTAT,-0.07
22,TGGAACACGTGTGGAG,0.13
23,ATGATCACGTGTGTTC,0.12
24,GGCGGCACGTGATTGT,0.13
25,AGATTCACGTGAGATG,0.4
26,TGGCTCACGTGTTGGG,0.18

row,Sequence,relative binding free energy [kcal/mol]
1,TCGAGCACGTGTTGGT,-0.06
2,AATGGCACGTGGATTT,-0.01
3,CAATGCACGTGAGTTG,0.25
4,GATTTCACGTGCGTTG,0.17
5,AGCTGCACGTGGGAGG,-0.09
6,TAAGGCACGTGCGTAG,-0.09
7,TTATTCACGTGATGGC,0.31
8,TGAAGCACGTGGAGTC,0.05
9,ATATTCACGTGCGAGT,0.23
10,TAGTGCACGTGGCGTT,-0.12
11,TTCAGCACGTGGGTTA,-0.13
12,GTAAACACGTGTGATT,0
13,AGGTTCACGTGCGGTT,0.22
14,AGTTGCACGTGAAGCG,0.36
15,GTTAGCACGTGAGGGA,0.17
16,ATATGCACGTGTCGTT,-0.01
17,TAAGCCACGTGGGTGA,-0.12
18,TTCGACACGTGGGGTA,-0.18
19,ACTTGCACGTGTTATT,0.05
20,AGGGGCACGTGATAAT,-0.08
21,AGTGCCACGTGGTGCG,-0.19
22,AGTTACACGTGTTCAT,0.07
23,ATGTTCACGTGTGCGC,0.32
24,TAGGCCACGTGTCTGG,-0.05
25,TATTACACGTGAATTG,0.32
26,AAAGTCACGTGTGACG,0.21

row,Sequence,relative binding free energy [kcal/mol]
1,TGTTACACGTGCGTAG,0.06
2,ATAGTCACGTGAAATG,0.22
3,TTGGACACGTGGGTTC,-0.01
4,CGTTGCACGTGGGAGC,-0.07
5,TTTTGCACGTGTATGC,0.04
6,TTTGTCACGTGGGCCT,-0.09
7,TAATGCACGTGGTTTT,-0.06
8,TAATTCACGTGGACTT,0.28
9,GATGTCACGTGTTGTA,0.15
10,TGAGACACGTGGACGT,0.18
11,TACGACACGTGTGGTT,0.15
12,GTGTACACGTGCTTAT,-0.02
13,TTATGCACGTGTCATT,-0.03
14,GGGCTCACGTGGGTGA,0.17
15,TTAAACACGTGTGTGG,-0.1
16,ATAGTCACGTGGTCTA,-0.04
17,GTAAACACGTGGTTGA,0.02
18,TAAGGCACGTGTTAGA,-0.03
19,CGTGGCACGTGACGTT,-0.07
20,TTATGCACGTGCTAGT,-0.19
21,AGGTGCACGTGGTTCG,-0.12
22,ATATTCACGTGTTTAC,0.29
23,GTGTTCACGTGTGGGT,0.24
24,GATGTCACGTGTCGCG,0.19
25,GTTAGCACGTGGATCT,0.07
26,TGGATCACGTGAGGAG,0.32

row,Sequence,relative binding free energy [kcal/mol]
1,TGATACACGTGGGTGT,-0.11
2,CTTGGCACGTGGAAAA,0.19
3,CTTTGCACGTGGGTCG,-0.17
4,TTGGGCACGTGCGTTT,-0.1
5,TTATACACGTGCGTGG,0.04
6,AATTTCACGTGTCAGG,0.29
7,GTGTGCACGTGTGTGA,0.09
8,CGGTGCACGTGAGGAT,0.32
9,GTGTGCACGTGCACGT,-0.12
10,GGCGACACGTGTAGGT,0.06
11,ATGTGCACGTGAGGCT,0
12,ATTGTCACGTGGCTAT,-0.01
13,TGCGCCACGTGGTGTT,-0.25
14,ATAGGCACGTGTGCGG,-0.2
15,TTATCCACGTGTATAT,0.06
16,TCGCTCACGTGGGGTT,0.14
17,AGATTCACGTGGGTCG,0.1
18,TGAAACACGTGTGGGC,-0.01
19,GGGGGCACGTGGGCGA,-0.18
20,TGGGTCACGTGGATTG,0.2
21,AATGACACGTGATTTT,0.11
22,AAGGGCACGTGAAGGC,0.06
23,CTTGTCACGTGGGCGA,0
24,GGAGGCACGTGGCTTA,-0.04
25,TGAGACACGTGAGGGC,0.32
26,GTCGGCACGTGCGAGG,0.02

row,Sequence,relative binding free energy [kcal/mol]
1,GTAAGCACGTGGTAGG,-0.07
2,AGGTACACGTGTCAGT,0
3,AGGGTCACGTGTAGGC,0.03
4,GCGTTCACGTGTTTTA,0.34
5,TTACTCACGTGTTAGA,0.22
6,TGGATCACGTGTGGAC,0.33
7,CGATGCACGTGTTGTG,-0.09
8,GGGGTCACGTGTCGAA,0.19
9,GGCGGCACGTGTTGGT,0.1
10,CTGTGCACGTGAGTTG,0.07
11,TGGGACACGTGTCGTG,0.04
12,GTGGTCACGTGGTCCT,0.13
13,CTATCCACGTGTTTGG,0.14
14,CGGATCACGTGAAGGT,0.2
15,AGTGACACGTGGTGGA,-0.05
16,TTTGGCACGTGTACAG,-0.2
17,CTGGGCACGTGGTGCA,-0.2
18,ACGGTCACGTGTGGCG,0.17
19,GAAGACACGTGTTGGT,0.18
20,GATTGCACGTGTAGTT,0.2
21,TGACACACGTGTAATG,0.19
22,GTTTACACGTGTACGG,0.23
